{"source": "the supplement of paper PMC8728848", "binders": {"B1": {"name": "PVL (Psathyrella velutina), Q309D1_9AGAR (protein)", "chain": "MSVVVISQALPVPTRIPGVADLVGFGNGGVYIIRNSLLIQVVKVINNFGYDAGGWRVEKHVRLLADTTGDNQPDVVGFGENGVWISTNNGNNTFVDPPKMVLANFAYAAGGWRVEKHIRFMADLRKTGRADIVGFGDGGIYISRNNGGGQFAPAQLALNNFGYAQGWRLDRHLRFLADVTGDGLLDVVGFGENQVYIARNSGNGTFQPAQAVVNNFCIGAGGWTISAHPRVVADLTGDRKADILGFGVAGVYTSLNNGNGTFGAVNLVLKDFGVNSGWRVEKHVRCVSSLTNKKVGDIIGFGDAGVYVALNNGNGTFGPVKRVIDNFGYNQGWRVDKHPRFVVDLTGDGCADIVGFGENSVWACMNKGDGTFGPIMKLIDDMTVSKGWTLQKTVRYAANLYL"}}, "assay_in_all_cases": "glycan array binding signal (z-score within array); higher = stronger binding", "conditions_in_all_cases": "glycan notation: IUPAC condensed, linker removed", "key": {"[1]": {"target": "Fuc(a1-2)[GalNAc(b1-3)]Gal", "method_in_brief": "(§1)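 Glycan array data were curated from 3228 arrays in the Consortium for Functional Glycomics database and kept only where the protein sequence was available. Glycan names were converted to IUPAC-condensed notation, and columns mapping to the same glycan were averaged. The binding signal is a within-array Z-score, averaged across arrays of the same protein sequence at different concentrations or buffers and across linkers. Negative Z-scores can be read as non-binding.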"}, "Fuc(a1-3)GlcNAc": {"target": "Fuc(a1-3)GlcNAc", "method_in_brief": "as §1"}, "[2]": {"target": "Fuc(a1-3)[Gal(b1-4)]Glc6S", "method_in_brief": "as §1"}, "[3]": {"target": "Fuc(a1-3)[Gal(b1-4)]GlcNAc", "method_in_brief": "as §1"}, "[4]": {"target": "Fuc(a1-3)[Gal(b1-4)]GlcNAc(b1-2)Man", "method_in_brief": "as §1"}, "[5]": {"target": "Fuc(a1-3)[Gal(b1-4)]GlcNAc(b1-2)Man(a1-3)[Fuc(a1-3)[Gal(b1-4)]GlcNAc(b1-2)Man(a1-6)]Man(b1-4)GlcNAc(b1-4)GlcNAc", "method_in_brief": "as §1"}, "[6]": {"target": "Fuc(a1-3)[Gal(b1-4)]GlcNAc(b1-2)Man(a1-3)[Fuc(a1-3)[Gal(b1-4)]GlcNAc(b1-2)Man(a1-6)]Man(b1-4)GlcNAc(b1-4)[Fuc(a1-6)]GlcNAc", "method_in_brief": "as §1"}, "[7]": {"target": "Fuc(a1-3)[Gal(b1-4)]GlcNAc(b1-3)Gal(b1-3)[Fuc(a1-4)]GlcNAc", "method_in_brief": "as §1"}, "[8]": {"target": "Fuc(a1-3)[Gal(b1-4)]GlcNAc(b1-3)Gal(b1-4)[Fuc(a1-3)]GlcNAc", "method_in_brief": "as §1"}, "[9]": {"target": "Fuc(a1-3)[Gal(b1-4)]GlcNAc(b1-3)Gal(b1-4)[Fuc(a1-3)]GlcNAc(b1-3)Gal(b1-4)[Fuc(a1-3)]GlcNAc", "method_in_brief": "as §1"}, "[10]": {"target": "Fuc(a1-3)[Gal(b1-4)]GlcNAc(b1-3)GalNAc", "method_in_brief": "as §1"}, "[11]": {"target": "Fuc(a1-3)[Gal(b1-4)]GlcNAc(b1-6)GalNAc", "method_in_brief": "as §1"}, "[12]": {"target": "Fuc(a1-3)[Gal(b1-4)]GlcNAc(b1-6)[Gal(b1-3)GlcNAc(b1-3)]Gal(b1-4)Glc", "method_in_brief": "as §1"}, "[13]": {"target": "Fuc(a1-3)[Gal(b1-4)]GlcNAc6S", "method_in_brief": "as §1"}, "[14]": {"target": "Fuc(a1-3)[Gal3S(b1-4)]Glc", "method_in_brief": "as §1"}, "[15]": {"target": "Fuc(a1-3)[Gal3S(b1-4)]GlcNAc", "method_in_brief": "as §1"}, "[16]": {"target": "Fuc(a1-3)[Gal3S(b1-4)]GlcNAc6S", "method_in_brief": "as §1"}, "[17]": {"target": "Fuc(a1-3)[GalNAc(b1-4)]GlcNAc", "method_in_brief": "as §1"}, "[18]": {"target": "Fuc(a1-3)[GalNAc(b1-4)]GlcNAc6S", "method_in_brief": "as §1"}, "Fuc(a1-4)GlcNAc": {"target": "Fuc(a1-4)GlcNAc", "method_in_brief": "as §1"}, "Fuc(b1-3)GlcNAc": {"target": "Fuc(b1-3)GlcNAc", "method_in_brief": "as §1"}, "Gal(a1-2)Gal": {"target": "Gal(a1-2)Gal", "method_in_brief": "as §1"}, "Gal(a1-3)Gal": {"target": "Gal(a1-3)Gal", "method_in_brief": "as §1"}, "Gal(a1-3)Gal(b1-3)GlcNAc": {"target": "Gal(a1-3)Gal(b1-3)GlcNAc", "method_in_brief": "as §1"}, "[19]": {"target": "Gal(a1-3)Gal(b1-3)GlcNAc(b1-2)Man", "method_in_brief": "as §1"}, "[20]": {"target": "Gal(a1-3)Gal(b1-3)GlcNAc(b1-2)Man(a1-3)[Gal(a1-3)Gal(b1-3)GlcNAc(b1-2)Man(a1-6)]Man(b1-4)GlcNAc(b1-4)GlcNAc", "method_in_brief": "as §1"}, "[21]": {"target": "Gal(a1-3)Gal(b1-3)GlcNAc(b1-3)GalNAc", "method_in_brief": "as §1"}, "[22]": {"target": "Gal(a1-3)Gal(b1-3)GlcNAc(b1-6)GalNAc", "method_in_brief": "as §1"}, "[23]": {"target": "Gal(a1-3)Gal(b1-3)[Fuc(a1-4)]GlcNAc(b1-2)Man(a1-3)[Gal(a1-3)Gal(b1-3)[Fuc(a1-4)]GlcNAc(b1-2)Man(a1-6)]Man(b1-4)GlcNAc(b1-4)GlcNAc", "method_in_brief": "as §1"}, "Gal(a1-3)Gal(b1-4)Glc": {"target": "Gal(a1-3)Gal(b1-4)Glc", "method_in_brief": "as §1"}, "Gal(a1-3)Gal(b1-4)GlcNAc": {"target": "Gal(a1-3)Gal(b1-4)GlcNAc", "method_in_brief": "as §1"}, "[24]": {"target": "Gal(a1-3)Gal(b1-4)GlcNAc(b1-2)Man", "method_in_brief": "as §1"}, "[25]": {"target": "Gal(a1-3)Gal(b1-4)GlcNAc(b1-2)Man(a1-3)[Gal(a1-3)Gal(b1-4)GlcNAc(b1-2)Man(a1-6)]Man(b1-4)GlcNAc(b1-4)GlcNAc", "method_in_brief": "as §1"}, "[26]": {"target": "Gal(a1-3)Gal(b1-4)GlcNAc(b1-3)GalNAc", "method_in_brief": "as §1"}, "[27]": {"target": "Gal(a1-3)Gal(b1-4)GlcNAc(b1-6)GalNAc", "method_in_brief": "as §1"}, "[28]": {"target": "Gal(a1-3)Gal(b1-4)[Fuc(a1-3)]GlcNAc", "method_in_brief": "as §1"}, "[29]": {"target": "Gal(a1-3)Gal(b1-4)[Fuc(a1-3)]GlcNAc(b1-2)Man(a1-3)[Gal(a1-3)Gal(b1-4)[Fuc(a1-3)]GlcNAc(b1-2)Man(a1-6)]Man(b1-4)GlcNAc(b1-4)GlcNAc", "method_in_brief": "as §1"}}, "note": "The other results are listed elsewhere or left out.", "data": [{"binder": "B1", "values": [{"measurement": "glycan array binding signal (z-score)", "setting": "[1]", "result": -0.353}, {"measurement": "glycan array binding signal (z-score)", "setting": "Fuc(a1-3)GlcNAc", "result": -0.371}, {"measurement": "glycan array binding signal (z-score)", "setting": "[2]", "result": -0.352}, {"measurement": "glycan array binding signal (z-score)", "setting": "[3]", "result": -0.361}, {"measurement": "glycan array binding signal (z-score)", "setting": "[4]", "result": -0.412}, {"measurement": "glycan array binding signal (z-score)", "setting": "[5]", "result": -0.368}, {"measurement": "glycan array binding signal (z-score)", "setting": "[6]", "result": -0.366}, {"measurement": "glycan array binding signal (z-score)", "setting": "[7]", "result": -0.366}, {"measurement": "glycan array binding signal (z-score)", "setting": "[8]", "result": -0.256}, {"measurement": "glycan array binding signal (z-score)", "setting": "[9]", "result": -0.357}, {"measurement": "glycan array binding signal (z-score)", "setting": "[10]", "result": -0.362}, {"measurement": "glycan array binding signal (z-score)", "setting": "[11]", "result": -0.365}, {"measurement": "glycan array binding signal (z-score)", "setting": "[12]", "result": -0.344}, {"measurement": "glycan array binding signal (z-score)", "setting": "[13]", "result": -0.357}, {"measurement": "glycan array binding signal (z-score)", "setting": "[14]", "result": -0.398}, {"measurement": "glycan array binding signal (z-score)", "setting": "[15]", "result": -0.357}, {"measurement": "glycan array binding signal (z-score)", "setting": "[16]", "result": -0.364}, {"measurement": "glycan array binding signal (z-score)", "setting": "[17]", "result": -0.386}, {"measurement": "glycan array binding signal (z-score)", "setting": "[18]", "result": -0.367}, {"measurement": "glycan array binding signal (z-score)", "setting": "Fuc(a1-4)GlcNAc", "result": -0.38}, {"measurement": "glycan array binding signal (z-score)", "setting": "Fuc(b1-3)GlcNAc", "result": -0.418}, {"measurement": "glycan array binding signal (z-score)", "setting": "Gal(a1-2)Gal", "result": -0.387}, {"measurement": "glycan array binding signal (z-score)", "setting": "Gal(a1-3)Gal", "result": -0.351}, {"measurement": "glycan array binding signal (z-score)", "setting": "Gal(a1-3)Gal(b1-3)GlcNAc", "result": -0.383}, {"measurement": "glycan array binding signal (z-score)", "setting": "[19]", "result": -0.368}, {"measurement": "glycan array binding signal (z-score)", "setting": "[20]", "result": -0.356}, {"measurement": "glycan array binding signal (z-score)", "setting": "[21]", "result": -0.365}, {"measurement": "glycan array binding signal (z-score)", "setting": "[22]", "result": -0.439}, {"measurement": "glycan array binding signal (z-score)", "setting": "[23]", "result": -0.353}, {"measurement": "glycan array binding signal (z-score)", "setting": "Gal(a1-3)Gal(b1-4)Glc", "result": -0.359}, {"measurement": "glycan array binding signal (z-score)", "setting": "Gal(a1-3)Gal(b1-4)GlcNAc", "result": -0.38}, {"measurement": "glycan array binding signal (z-score)", "setting": "[24]", "result": -0.365}, {"measurement": "glycan array binding signal (z-score)", "setting": "[25]", "result": -0.351}, {"measurement": "glycan array binding signal (z-score)", "setting": "[26]", "result": -0.363}, {"measurement": "glycan array binding signal (z-score)", "setting": "[27]", "result": -0.418}, {"measurement": "glycan array binding signal (z-score)", "setting": "[28]", "result": -0.368}, {"measurement": "glycan array binding signal (z-score)", "setting": "[29]", "result": -0.346}]}]}
